# About 2,200 (0.71%) of roughly 310,000 compounds showed an effect of 50% or more. Effects have a minus sign here. Some of the results follow. Where a SMILES comes first, the peptide text is derived from it. [ ]: non-standard residue; d: D form. The star is where a group is joined. Hyp = O=C(O)[CH]1C[CH](O)CN1; Cbz = O=C(OCc1ccccc1)*; OBn = c1ccc(CO*)cc1
# Biological target: human ether-à-go-go-related gene (hERG) potassium channel (human, UniProt Q12809)
# Experiment: primary screen, population patch clamp on CHO cells stably expressing hERG
# Sequence of human ether-à-go-go-related gene (hERG) potassium channel (Q12809 whole entry, looked up): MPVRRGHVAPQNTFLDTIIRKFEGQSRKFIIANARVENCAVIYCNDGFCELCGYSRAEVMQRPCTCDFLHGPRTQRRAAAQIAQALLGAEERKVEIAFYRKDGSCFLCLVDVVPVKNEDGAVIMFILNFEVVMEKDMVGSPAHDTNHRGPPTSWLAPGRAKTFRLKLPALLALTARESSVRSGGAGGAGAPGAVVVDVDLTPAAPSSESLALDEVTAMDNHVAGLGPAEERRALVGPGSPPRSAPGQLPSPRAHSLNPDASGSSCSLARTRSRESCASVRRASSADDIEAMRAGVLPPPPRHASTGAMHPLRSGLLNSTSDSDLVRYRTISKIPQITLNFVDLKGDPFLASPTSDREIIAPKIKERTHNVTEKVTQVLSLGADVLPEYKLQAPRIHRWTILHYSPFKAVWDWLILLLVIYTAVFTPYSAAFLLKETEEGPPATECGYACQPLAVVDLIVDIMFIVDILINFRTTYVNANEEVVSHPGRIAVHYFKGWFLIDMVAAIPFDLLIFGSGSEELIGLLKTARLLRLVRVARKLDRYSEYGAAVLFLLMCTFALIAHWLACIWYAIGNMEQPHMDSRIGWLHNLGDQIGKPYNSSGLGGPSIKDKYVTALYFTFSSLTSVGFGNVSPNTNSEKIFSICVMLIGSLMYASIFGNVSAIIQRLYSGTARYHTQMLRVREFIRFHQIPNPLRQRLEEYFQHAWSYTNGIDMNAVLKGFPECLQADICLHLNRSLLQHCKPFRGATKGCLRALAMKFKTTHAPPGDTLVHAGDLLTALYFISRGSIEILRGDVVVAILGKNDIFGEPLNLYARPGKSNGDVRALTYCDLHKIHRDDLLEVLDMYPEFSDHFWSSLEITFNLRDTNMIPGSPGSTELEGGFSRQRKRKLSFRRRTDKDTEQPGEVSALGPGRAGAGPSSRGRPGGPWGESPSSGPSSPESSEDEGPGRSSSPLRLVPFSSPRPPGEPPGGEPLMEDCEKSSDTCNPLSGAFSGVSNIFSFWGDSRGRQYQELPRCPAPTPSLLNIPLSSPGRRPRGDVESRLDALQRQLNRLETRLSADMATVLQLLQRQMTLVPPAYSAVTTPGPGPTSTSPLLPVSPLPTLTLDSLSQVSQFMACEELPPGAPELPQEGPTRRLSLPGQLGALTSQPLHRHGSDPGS
row,SMILES,"hERG current change (%, negative = inhibition) at 1uM [%]"
1,COc1ccccc1OCC(=O)Nc1cccc(N(C)S(C)(=O)=O)c1,-7.38
2,O=C(CN1C(=O)C2CC=CCC2C1=O)Nc1nccs1 (stereo not shown),5.51
3,Cc1ccc(N(CCC#N)C(=O)COC(=O)c2cc(C)no2)cc1,8.57
4,COCCCNC(=O)Cn1cc2c(n1)CCC(C)C2 (stereo not shown),3.92
5,COc1ccc(C(C)NC(=O)c2ccoc2C)cc1OC (stereo not shown),0.354
6,Cc1ccccc1C(=O)N1CCC(C(=O)NCc2ccc(Cl)cc2)CC1,12.1
7,N#Cc1c(-c2ccco2)cc(-c2ccccc2)[nH]c1=O,10.6
8,CCOC(=O)CSCC(=O)N1CCC(Cc2ccccc2)CC1,12.1
9,CSc1ccccc1NC(=S)NC1CCCC1,4.68
10,O=C(O)CCCCCN1C(=O)CSC1=S,3.95
11,CC1(C)Cc2c(C#N)c(SCCC#N)nc(N3CCOCC3)c2CO1,9.53
12,OCCN1C2CCC1CC(O)(c1ccc(F)cc1)C2 (stereo not shown),8.22
13,OCc1nc2ccccc2n1/N=C/c1cccs1,30.6
14,Cn1c(SCc2ccccc2)nnc1-c1cnccn1,-6.49
15,CC(=O)NC(CC(=O)OCC(=O)c1c(N)n(CC(C)C)c(=O)n(C)c1=O)c1ccccc1 (stereo not shown),6.02
16,CCOC(=O)c1sc(N=NC2=C(O)CCCC2=O)c(C(=O)OCC)c1C,10
17,O=[N+]([O-])c1cccc(-c2nc(-c3ccccc3)no2)c1,9.82
18,O=C(c1ccc2c(=O)n(Cc3ccc4c(c3)OCO4)c(=O)[nH]c2c1)N1CCN(c2ccccc2)CC1,4.75
19,CCCCCOc1ccc(C(=O)CCC(=O)Nc2ccc(NC(C)=O)cc2)cc1,14.2
20,CCOC(=O)CCC(=O)Nc1ccc(S(=O)(=O)Nc2cc(OC)nc(OC)n2)cc1,12.4
21,Cc1ccc(-n2c(=O)[nH]c3cc(C(=O)NC4CCN(Cc5ccccc5)CC4)ccc3c2=O)cc1,12.1
22,COc1ccc(-n2nnnc2/C=C/Nc2cc(C(F)(F)F)ccc2OC)cc1,14.8

row,SMILES,"hERG current change (%, negative = inhibition) at 1uM [%]"
1,COc1cc(CNc2ncn[nH]2)ccc1OCC(=O)NC(C)(C)C,18.6
2,CC(C)N(Cc1ccccc1)C(=O)COC(=O)c1cnccn1,9.98
3,C1=C(CCNc2ncnc3c2[nH]c2ccccc23)CCCC1,10.1
4,CS(=O)(=O)N(Cc1nc2sc3c(c2c(=O)[nH]1)CCCC3)C1CCCCC1,6.71
5,CCn1c(C(=O)N2CCC(C(=O)N3CCC4(CC3)OCCO4)CC2)cc2sccc21,7.1
6,Cc1scc(C(=O)O)c1-c1c(C(=O)O)csc1C,20.4
7,O=C(NCC(=O)N1CC(O)CC1C(=O)N1CCCC1C(=O)OCc1ccccc1)OCc1ccccc1 (stereo not drawn) (Cbz-Gly-[Hyp]-Pro-OBn; configuration not given here),16.1
8,Cc1ccc2nc(Cl)c(C#N)cc2c1,10.8
9,COC(=O)C(C)Oc1ccc2c(c1)O/C(=C\c1ccco1)C2=O (stereo not shown),10.9
10,COc1ccc(NC(=O)c2c(N)cnn2C)cc1,13.4
11,CC(=O)Nc1ccc(C2(c3ccc(NC(C)=O)cc3)C(=O)Nc3ccccc32)cc1,18.4
12,Brc1ccc(Oc2cc(Br)c(Br)cc2Br)c(Br)c1,15.5
13,CN1CCN(C(=O)C(=O)c2cn(CC(=O)N3CCCC3)c3ccccc23)CC1,12.9
14,COc1ccc(-c2cc(C(F)F)n3ncc(C(=O)N4CCN5CCCC5C4)c3n2)cc1 (stereo not shown),1.97
15,CC1C(=O)N(Cc2ccc([N+](=O)[O-])cc2)c2ccccc2N1C(=O)c1c(F)cccc1F (stereo not shown),2.61
16,Cc1cc(S(=O)(=O)Nc2ccc3c(c2)COC3=O)ccc1F,12.3
17,O=C(COC(=O)c1ccc2ncsc2c1)Nc1cccc(Cl)c1,7.42
18,O=C(NC1CCCCC1)C(c1ccccn1)N(C(=O)c1csnn1)c1ccccc1F (stereo not shown),3.01
19,CC1(C)Cc2c(sc(NC(=O)COc3ccccc3)c2C#N)C(C)(C)N1,2.74
20,CCC1CCC2(CC1)NC(=O)N(CC(=O)c1c(C)[nH]c3ccccc13)C2=O (stereo not shown),9.4
21,COc1ccc(NC(=O)CN(C)C(=O)c2cc(S(=O)(=O)N3CCCCCC3)ccc2OC)cc1,1.11
22,Cc1ccc(C)c(-n2c(-c3ccco3)n[nH]c2=S)c1,0.801

row,SMILES,"hERG current change (%, negative = inhibition) at 1uM [%]"
1,CCC(C)NC(=O)CN1c2cccc3cccc(c23)S1(=O)=O (stereo not shown),11.4
2,COC(=O)c1c(-c2ccccc2Cl)noc1-c1cnc(N)nc1C(F)(F)F,9.46
3,N#Cc1c(SCC(=O)O)nc(N2CCOCC2)c2c1CCCC2,0.778
4,O=C1c2ccccc2C(=O)N1CCCCN(C(=O)c1cc2ccccc2oc1=O)c1ccc(Cl)cc1,1.63
5,O=[n+]1cc(-c2ccc(Cl)cc2)n([O-])c2c1CCCCC2,8.76
6,CCCCC(=O)Nc1nc2c(OC)ccc(OC)c2s1,5.25
7,CCOc1ccc(NS(=O)(=O)c2ccc(OCC(=O)NCCCOC)cc2)cc1,3.21
8,COc1cc(OC)c2c(c1)O/C(=C\c1ccccc1)C2=O,10.1
9,COc1ccc(C(=O)CSC2=NS(=O)(=O)c3cc(Cl)ccc3N2)cc1,15.9
10,CCN(CC1CCCN(CCc2cccc(OC)c2)C1)C(=O)c1ccc(COC)o1 (stereo not shown),-51.1
11,Cc1csc(=N)n1CC(=O)N1CCc2ccccc21,6.66
12,CCCOC(=O)c1ccc(Oc2cn[nH]c2-c2ccc(OC)cc2O)cc1,8.37
13,Cc1ccc(N(C)S(=O)(=O)c2cccc(C(=O)NCC(c3cccs3)N3CCOCC3)c2)cc1 (stereo not shown),4.95
14,CC(C)=C(NC(=O)c1ccco1)C(=O)NCCc1nc2ccccc2[nH]1,3.26
15,CC1CCc2c(sc3nc(CSc4ncn[nH]4)[nH]c(=O)c23)C1 (stereo not shown),8.99
16,CC(C)c1cccc(-c2ccc3c(c2)S(=O)(=O)c2cccc(C(=O)O)c2C3=O)c1,8.18
17,CCOC(=O)Cn1nnnc1C(CC)N(Cc1cc2ccc(C)cc2[nH]c1=O)C1CCCC1 (stereo not shown),-1.99
18,O=C(c1c(F)c(F)c(F)c(F)c1F)N(Cc1ccccc1)Cc1ccccc1,10.2
19,Cc1ccccc1N1CCN(c2ncnc3c2cnn3Cc2ccc(Cl)cc2)CC1,15.7
20,Cn1nc(CC(=O)NCc2ccc(C(F)(F)F)cc2)c2ccccc2c1=O,-1.19
21,Cc1ccnc(NC(=O)Nc2ccc(F)cc2)c1,15.7
22,Cc1ccc2c(CN(C)Cc3ccccc3)cc(=O)oc2c1C,13.3

row,SMILES,"hERG current change (%, negative = inhibition) at 1uM [%]"
1,Cc1c(NC(=S)NC(=O)c2cccc3ccccc23)cccc1C(=O)O,6.19
2,CN(C)C(=O)CSc1nc2ccccc2n1Cc1ccccc1,4.73
3,O=C(CSc1nc2[nH]ncc2c(=O)[nH]1)Nc1ccccc1,8.84
4,COc1ccccc1NC(=O)c1c(N=Cc2cccc([N+](=O)[O-])c2)cnn1C,14.2
5,N#C/C(=C(/O)COc1ccccc1)c1nc2ccccc2s1,20.6
6,C=CCc1cc(/C=C/c2nc(O)c([N+](=O)[O-])c(=O)[nH]2)cc(OC)c1O,16.2
7,COc1cccc(CNC(=O)C2CCN(S(=O)(=O)c3ccc(C)cc3)CC2)c1,-2.72
8,O=C(O)CC/C(=N/NC(=O)CNC(=O)C(c1ccccc1)c1ccccc1)c1ccccc1,9.36
9,Cc1cc(NC(=O)CSc2nc(C3CC3)nc3sc(C)c(C)c23)no1,17.7
10,CC(C)NC(=O)CN(c1cccc(Br)c1)S(C)(=O)=O,-1.63
11,O=C(CSCc1ccc(Cl)cc1)Nc1ccc(Br)cc1C(=O)O,7.66
12,CCO.N#Cc1c(SC(C(=O)O)c2ccccc2)nc2c(c1-c1cccs1)CCCC2 (stereo not shown),10.8
13,CCCNC(=O)c1ccccc1NC(=O)c1ccccc1N(C)S(C)(=O)=O,9.56
14,O=C(COC(=O)c1cc(=O)c2ccccc2o1)NCC1CCCCC1,6.37
15,Cn1ncc(C#N)c1/N=C/N1CCCC1,12.8
16,S=C(c1ccc(-c2cccc(Cl)c2)o1)N1CCOCC1,13.1
17,COc1ccc(C)cc1N1CC(C(=O)Nc2ccccc2C(=O)NC2CC2)CC1=O (stereo not shown),7.76
18,CN(C)c1ccc(/C=C2/C(=O)NC(=O)N(Cc3ccco3)C2=O)cc1,11.9
19,CN(C)S(=O)(=O)N1CCN(c2ccc([N+](=O)[O-])c(N3CCCCC3)c2)CC1,15.7
20,O=C(Cn1ccc(C(F)(F)F)n1)Nc1cccc(S(=O)(=O)N2CCCCC2)c1,-3.3
21,CCC(=O)NCCc1c[nH]c2ccccc12,12.5
22,COc1ccc(CCN=C(N)NS(=O)(=O)c2ccccc2)cc1OC,7.46

# Reference: article PMC4336329 (PLoS ONE, 2015)
